pIC50: −log10 of the molar value. IC50 is the fitted dose that halves viability relative to control wells, and lower means more sensitive; where the fit passes the top or lowest dose, that dose stands as a limit. For AUC the same curve is integrated over the 256-fold range of doses and scaled to a fraction; the more sensitive the line, the further below 1. For part of these data: Any top dose called inferred was calculated from the reported fits. For part of these data: An entry number marks a drug with two screens in the source, which often give different values.
Tests used:
Assay in all cases: Viability of human cancer cell lines after 72 h of drug (GDSC screen)
[1] = compound: COc1cc2c(Nc3ccc(NC(=O)c4ccccc4)cc3)ncnc2cc1OCCCN1CCOCC1 [ZM-447439]; conditions: top dose inferred
Experimental: (§1)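 Human cancer cell lines in 384-well plates, medium with 10% serum, drug for 72 h over a 256-fold dose range (nine 2-fold or five 4-fold steps up to the top dose). Adherent lines were fixed and stained with the nucleic acid dye Syto60, suspension lines read with resazurin; signal relative to control wells, capped at 0 and 100%. One two-parameter sigmoid per drug and line, fitted in a mixed model over all curves with the slope shared within a line.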

[2] = compound: CC(=O)c1c(C)c2cnc(Nc3ccc(N4CCNCC4)cn3)nc2n(C2CCCC2)c1=O [PD-0332991]
Experimental: as §1

[3] = compound: Cn1cnc2c(F)c(Nc3ccc(Br)cc3Cl)c(C(=O)NOCCO)cc21 [AZD6244]; conditions: screen: GDSC drug entry 1062
Experimental: as §1

Cell Line | AUC [1] | pIC50 [1] | AUC [2] | pIC50 [2] | AUC [3] | pIC50 [3]
LK-2 (lung squamous cell carcinoma, adherent, top dose 4 µM) | 0.752 | 5.90 | 0.977 | < 5.40 | 0.989 | < 5.40
LN-18 (glioma, adherent, top dose 4 µM) | 0.928 | < 5.40 | 0.886 | 5.53 | 0.994 | < 5.40
LN-405 (glioma, adherent, top dose 4 µM) | 0.948 | < 5.40 | 0.971 | < 5.40 | 0.924 | < 5.40
LNCaP-Clone-FGC (prostate, adherent, top dose 4 µM) | 0.959 | < 5.40 | 0.89 | < 5.40 | 0.984 | < 5.40
LNZTA3WT4 (glioma, adherent, top dose 4 µM) | 0.981 | < 5.40 | 0.925 | < 5.40 | 0.986 | < 5.40
LOU-NH91 (lung squamous cell carcinoma, adherent, top dose 4 µM) | 0.958 | < 5.40 | 0.921 | < 5.40 | 0.982 | < 5.40
LOUCY (T-cell lymphoblastic leukaemia, suspension, top dose 4 µM) | 0.815 | 5.77 | 0.796 | 5.83 | 0.89 | 5.51
LOXIMVI (melanoma, semi-adherent, top dose 4 µM) | 0.883 | 5.46 | 0.78 | 5.84 | 0.663 | 6.17
LP-1 (myeloma, suspension, top dose 4 µM) | 0.992 | < 5.40 | 0.993 | < 5.40 | 0.991 | < 5.40
LS-180 (large intestine, adherent, top dose 4 µM) | 0.852 | 5.42 | 0.806 | 5.62 | 0.714 | 5.95
LS-411N (large intestine, adherent, top dose 4 µM) | 0.977 | < 5.40 | 0.968 | < 5.40 | 0.805 | 5.59
LS-513 (large intestine, adherent, top dose 4 µM) | 0.88 | < 5.40 | 0.727 | 5.94 | 0.987 | < 5.40
LS-1034 (large intestine, adherent, top dose 4 µM) | 0.925 | < 5.40 | 0.984 | < 5.40 | 0.881 | < 5.40
LU-134-A (small cell lung carcinoma, suspension, top dose 4 µM) | 0.887 | < 5.40 | 0.987 | < 5.40 | 0.987 | < 5.40
LU-135 (small cell lung carcinoma, suspension, top dose 4 µM) | 0.661 | 6.19 | 0.976 | < 5.40 | 0.992 | < 5.40
LU-139 (small cell lung carcinoma, suspension, top dose 4 µM) | 0.834 | 5.43 | 0.877 | < 5.40 | 0.851 | < 5.40
LU-165 (small cell lung carcinoma, suspension, top dose 4 µM) | 0.988 | < 5.40 | 0.988 | < 5.40 | 0.988 | < 5.40
LXF-289 (lung adenocarcinoma, adherent, top dose 4 µM) | 0.795 | 5.74 | 0.745 | 5.91 | 0.976 | < 5.40
LoVo (large intestine, adherent, top dose 4 µM) | 0.909 | < 5.40 | 0.859 | 5.47 | 0.706 | 6.02
M059J (glioma, adherent, top dose 4 µM) | 0.913 | < 5.40 | 0.985 | < 5.40 | 0.967 | < 5.40
MC116 (B-cell lymphoma, suspension, top dose 4 µM) | 0.999 | < 5.40 | 0.999 | < 5.40 | 0.999 | < 5.40

Cell Line | AUC [1] | pIC50 [1] | AUC [2] | pIC50 [2] | AUC [3] | pIC50 [3]
MC-CAR (haematopoietic neoplasm, suspension, top dose 4 µM) | 0.828 | 5.67 | 0.818 | 5.71 | 0.905 | < 5.40
MC-IXC (neuroblastoma, adherent, top dose 4 µM) | 0.957 | < 5.40 | 0.996 | < 5.40 | 0.996 | < 5.40
MDA-MB-157 (breast, adherent, top dose 4 µM) | 0.827 | 5.60 | 0.963 | < 5.40 | 0.97 | < 5.40
MDA-MB-330 (breast, adherent, top dose 4 µM) | 0.954 | < 5.40 | 0.947 | < 5.40 | 0.954 | < 5.40
MDA-MB-361 (breast, adherent, top dose 4 µM) | 0.958 | < 5.40 | 0.914 | < 5.40 | 0.972 | < 5.40
MDA-MB-415 (breast, adherent, top dose 4 µM) | 0.983 | < 5.40 | 0.948 | < 5.40 | 0.983 | < 5.40
MDST8 (large intestine, adherent, top dose 4 µM) | 0.959 | < 5.40 | 0.906 | < 5.40 | 0.859 | 5.48
ME-1 (acute myeloid leukaemia, suspension, top dose 4 µM) | 0.986 | < 5.40 | 0.964 | < 5.40 | 0.958 | < 5.40
ME-180 (cervix, adherent, top dose 4 µM) | 0.924 | < 5.40 | 0.964 | < 5.40 | 0.958 | < 5.40
MEG-01 (chronic myeloid leukaemia, suspension, top dose 4 µM) | 0.892 | < 5.40 | 0.964 | < 5.40 | 0.984 | < 5.40
MEL-HO (melanoma, adherent, top dose 4 µM) | 0.919 | < 5.40 | 0.928 | < 5.40 | 0.421 | 6.82
MEL-JUSO (melanoma, adherent, top dose 4 µM) | 0.911 | < 5.40 | 0.66 | 6.13 | 0.984 | < 5.40
MES-SA (uterus, adherent, top dose 4 µM) | 0.92 | < 5.40 | 0.966 | < 5.40 | 0.992 | < 5.40
MFE-280 (endometrium, adherent, top dose 4 µM) | 0.982 | < 5.40 | 0.982 | < 5.40 | 0.982 | < 5.40
MFE-296 (endometrium, adherent, top dose 4 µM) | 0.826 | 5.57 | 0.838 | 5.52 | 0.918 | < 5.40
MFH-ino (soft tissue, adherent, top dose 4 µM) | 0.949 | < 5.40 | 0.777 | 5.72 | 0.958 | < 5.40
MFM-223 (breast, adherent, top dose 4 µM) | 0.985 | < 5.40 | 0.86 | 5.48 | 0.989 | < 5.40
MG-63 (osteosarcoma, adherent, top dose 4 µM) | 0.949 | < 5.40 | 0.702 | 5.99 | 0.883 | < 5.40
MHH-CALL-2 (B-cell leukaemia, suspension, top dose 4 µM) | 0.997 | < 5.40 | 0.996 | < 5.40 | 0.989 | < 5.40
MHH-ES-1 (Ewing sarcoma, adherent, top dose 4 µM) | 0.788 | 5.76 | 0.595 | 6.34 | 0.986 | < 5.40
MHH-NB-11 (neuroblastoma, adherent, top dose 4 µM) | 0.865 | < 5.40 | 0.435 | 6.79 | 0.898 | < 5.40

Cell Line | AUC [1] | pIC50 [1] | AUC [2] | pIC50 [2] | AUC [3] | pIC50 [3]
MHH-PREB-1 (B-cell leukaemia, suspension, top dose 4 µM) | 0.949 | < 5.40 | 0.536 | 6.51 | 0.985 | < 5.40
MIA-PaCa-2 (pancreas, adherent, top dose 4 µM) | 0.788 | 5.71 | 0.699 | 6.01 | 0.943 | < 5.40
MKN7 (stomach, adherent, top dose 4 µM) | 0.928 | < 5.40 | 0.981 | < 5.40 | 0.839 | < 5.40
MKN28 (stomach, adherent, top dose 4 µM) | 0.985 | < 5.40 | 0.875 | < 5.40 | 0.987 | < 5.40
ML-2 (acute myeloid leukaemia, suspension, top dose 4 µM) | 0.93 | < 5.40 | 0.974 | < 5.40 | 0.986 | < 5.40
MLMA (hairy cell leukaemia, semi-adherent, top dose 4 µM) | 0.954 | < 5.40 | 0.829 | 5.60 | 0.969 | < 5.40
MM1S (myeloma, suspension, top dose 4 µM) | 0.96 | < 5.40 | 0.863 | 5.50 | 0.959 | < 5.40
MN-60 (B-cell leukaemia, suspension, top dose 4 µM) | 0.988 | < 5.40 | 0.987 | < 5.40 | 0.986 | < 5.40
MOG-G-CCM (glioma, adherent, top dose 4 µM) | 0.958 | < 5.40 | 0.981 | < 5.40 | 0.979 | < 5.40
MOG-G-UVW (glioma, adherent, top dose 4 µM) | 0.805 | 5.71 | 0.671 | 6.13 | 0.948 | < 5.40
MOLM-16 (acute myeloid leukaemia, suspension, top dose 4 µM) | 0.756 | 5.91 | 0.739 | 5.97 | 0.931 | < 5.40
MOLP-8 (myeloma, suspension, top dose 4 µM) | 0.964 | < 5.40 | 0.92 | < 5.40 | 0.965 | < 5.40
MOLT-4 (lymphoblastic leukaemia, suspension, top dose 4 µM) | 0.754 | 5.95 | 0.28 | 7.16 | 0.958 | < 5.40
MOLT-13 (T-cell lymphoblastic leukaemia, suspension, top dose 4 µM) | 0.716 | 6.03 | 0.373 | 6.93 | 0.513 | 6.57
MOLT-16 (T-cell lymphoblastic leukaemia, suspension, top dose 4 µM) | 0.653 | 6.22 | 0.488 | 6.63 | 0.939 | < 5.40
MONO-MAC-6 (acute myeloid leukaemia, suspension, top dose 4 µM) | 0.772 | 5.79 | 0.891 | < 5.40 | 0.969 | < 5.40
MPP-89 (mesothelioma, adherent, top dose 4 µM) | 0.981 | < 5.40 | 0.924 | < 5.40 | 0.961 | < 5.40
MRK-nu-1 (breast, suspension, top dose 4 µM) | 0.962 | < 5.40 | 0.969 | < 5.40 | 0.97 | < 5.40
MS-1 (small cell lung carcinoma, suspension, top dose 4 µM) | 0.991 | < 5.40 | 0.991 | < 5.40 | 0.991 | < 5.40
MSTO-211H (mesothelioma, adherent, top dose 4 µM) | 0.88 | 5.46 | 0.742 | 5.94 | 0.891 | 5.41

Reference: the supplement of paper PMC4967469
